Assay results: publication PMC6696147, “Broad-Spectrum Antiviral Natural Products from the Marine-Derived Penicillium sp. IMB17-046” (Molecules, 2019)

Each compound was assayed on influenza A/WSN/33 (H1N1) viruses (assay: microbe, parasite or virus in culture). Conditions: 24 h, read-out: IAV IC50.

Compound | IC50
COc1cc(=O)oc(C=CC=CC=CC(C)=CC2(C)OC(C)C(C)(O)C2O)c1C (single isomer, unassigned; (+)) [Compound 2, (+)-neocitreoviridin] | 3.6 ± 0.2 µM
CC[C@H](C)c1nc(OC)c(Cc2c[nH]c3ccccc23)nc1O [Compound 1, (S)-6-((1H-indol-3-yl)methyl)-3-(sec-butyl)-5-methoxypyrazin-2-ol] | 20.4 ± 0.3 µM
C=C(CC[C@@H](C)[C@H]1CC=C2C3=C(CC[C@@]21C)[C@@]1(C)CC[C@H](O)CC1CC3=O)C(C)C (stereo partly drawn) [Compound 3, 3β-hydroxyergosta-8,14,24(28)-trien-7-one] | 0.5 ± 0.02 µM
C=C(CC[C@@H](C)[C@H]1CC[C@H]2C3=C(CC[C@]12C)[C@@]1(C)CC[C@H](O)CC1CC3=O)C(C)C (stereo partly drawn) [Compound 7, 3β-hydroxyergosta-8,24(28)-dien-7-one] | > 10 µM
CC(C)[C@@H](C)/C=C/[C@@H](C)[C@H]1CC[C@H]2C3=C[C@@H](O)[C@@]4(O)C[C@@H](O)CC[C@]4(C)[C@H]3CC[C@]12C [Compound 8, (22E,24R)-24-methyl-5α-cholesta-7,22-dien-3β,5,6β-triol] | > 10 µM
NC(=O)c1ncn([C@@H]2O[C@H](CO)[C@@H](O)[C@H]2O)n1 [Ribavirin, reference compound] | 15.4 ± 0.9 µM
